# Data as given in publication PMC12136788.
# The other results are listed elsewhere or left out.
# B1: chr19:45712844:45712945:-|CDS|ENSG00000177051|unk|total|mutant (ssRNA)
# RNA: GGGAGUUCUACAGUCCGACGAUCGGAACAGCGGGCAGCCCUGGCCCUGCAGAGCUACCCACGACCGACCACCCCAGCGCCUGCCGUCUUUGUGUCCGCCGAGCAAGGUGGACCGGCCAAGGGGGUGGGAUCUGAACGGCGGUCCAACAGAGGAUUGAGCAUCA
# B2: chr4:145760401:145760502:-|3pUTR|ENSG00000151612|unk|total|mutant (ssRNA)
# RNA: GGGAGUUCUACAGUCCGACGAUCUCCGUACUUUUCUCUGAAAGGAAUCUUGUCUUGUUAAACCCUAAAGAGAGUGUCCUUAACCGCAAUCAGCACUUGUAAGCUUAUAUACUGGUGCAUUUGGUUUUCUGUUGGGUGAAUGCGCAACAGAGGAUUGAGCAUCA
# B3: chr20:64048168:64048962:-|CDS|ENSG00000203883|control|control|control (ssRNA)
# RNA: GGGAGUUCUACAGUCCGACGAUCCCGCAAGAAGCAGGCGCGCAAGGCCCGGCGGCUGGAGCCCGGCCUCCUGCUCCCGGGAUUAGCGCCCCCGCAGCCACCGCCCGAGCCUUUCCCCGCGGCGUCUGGCUCGGCUCGCGCCUUCAACAGAGGAUUGAGCAUCA
# B4: chr9:137030712:137031725:-|CDS|ENSG00000180549|control|control|control (ssRNA)
# RNA: GGGAGUUCUACAGUCCGACGAUCCUGCCCCUGGCCCAGCGGCCGCGAGGGCAGCCCUGGGUGUGGGCCUCCAUGGAGUCUCCUAGCCACACCCACGGCCUCAGCCACCUCCGAGGCAUCUUCAACUGGGUGCUGAGCUACCGGCAACAGAGGAUUGAGCAUCA
# B5: chr17:58089832:58089920:+|3pUTR|ENSG00000264364|msi1_unk|FALSE|overlapping (ssRNA)
# RNA: GGGAGUUCUACAGUCCGACGAUCAUUCCACUGAACUGUGAUUCUAUGGCUUGGGGCGGAGGGUGGGGUGGGGAUGCCUUCUUUAGGGGCCCUGAGAUGUGUUUGUCUGUGGUGUGUGGGAGUGGGGAGCAGAUUUGUCUUGCUCAACAGAGGAUUGAGCAUCA
# B6: chr6:109001311:109001429:-|CDS|ENSG00000080546|unk|total|mutant (ssRNA)
# RNA: GGGAGUUCUACAGUCCGACGAUCUGCUGCUUUGGGCCGUUUGGAUAACAUUACGUCCGUGAUGGUUUUCCACCCACAAUAUUCCGAAAGUUUCUUAAAAACUCAGCACUAUCUACUGCAAAUGGAUGGGCCGUUACCCCUACACAACAGAGGAUUGAGCAUCA
# B7: chr20:3868059:3868160:+|3pUTR|ENSG00000088888|unk|FALSE|bound_elsewhere (ssRNA)
# RNA: GGGAGUUCUACAGUCCGACGAUCUCAGCCUCCAGGGAUCUACACCCUGCCUUGGCUGCUACAGCUUUUUCACUCCACUGCCCUAGGGGAGUUCAGCAACCUAAUGAUCUCUAUCUCUGAACAUCUCUUCAUCCCAUGCUCCAACAACAGAGGAUUGAGCAUCA
# B8: chr10:88913158:88913259:+|CDS|ENSG00000138134|unk|total|mutant (ssRNA)
# RNA: GGGAGUUCUACAGUCCGACGAUCGCAUCAGAGAUUGACCGAGGCAGAAAGGAAGCGGAUUGCUCAGAUGCGCCAGCAGCAGCCCGAAUCGGAGCAGUUUCUGUUUUUCGAAGAUCAACUCAAGAAGCAAGAGUCCGCCCGAGGCAACAGAGGAUUGAGCAUCA
# B9: chr12:48342538:48342639:-|3pUTR|ENSG00000167528|unk|total|mutant (ssRNA)
# RNA: GGGAGUUCUACAGUCCGACGAUCUUGUUAAACAUUUUGAGUAUCACUCUUGCAUACUGUUACUAUUAUAUUUUCUCUAUAUACCGACAGAAAGGCCAUUUCCGAAUAUUAAAGGCUCUGAAAAUUUCUGCAGCCGACCCAACUCAACAGAGGAUUGAGCAUCA
# B10: chr15:48878618:48878734:+|CDS|ENSG00000255302|unk|total|mutant (ssRNA)
# RNA: GGGAGUUCUACAGUCCGACGAUCAGAACCAGCCCUGGAUGGCGGGUUUCAGAUGCAUUAUGAGAAGACCCCGUUUGAUCAGUCCGCUUUUAUCGAAGAGCUUUUUUCACUGAUGGUUGUCAAUCGUCUGACCGAAGAACUCGGCAACAGAGGAUUGAGCAUCA
# B11: chr7:29923496:29923595:-|3pUTR|ENSG00000136193|msi1_unk|total|mutant (ssRNA)
# RNA: GGGAGUUCUACAGUCCGACGAUCUCACAGUGCCGAGUUGGCGGGAAAAGCAAAUUCUUUUGAAGUCUCCGUCUUUCCCUCAGCCGCGGUUUCUUUCAGGUUAACAAGAGGCAUUUGUGCACACACACAGGGCUCUUGUGUGUGCAACAGAGGAUUGAGCAUCA
# B12: chr2:149026443:149026544:+|3pUTR|ENSG00000168280|msi1|total|mutant (ssRNA)
# RNA: GGGAGUUCUACAGUCCGACGAUCGUAAAGUGUGUCCUGUGUACUGCAGAUGUGUGUUCUCUGGGCUUUAUGUAUCUGUACAGCCGCUUUCACAUUAAAAAAAUUGUGGACAAACUUGUCCGGGGGGUUUGAGGGGAGAAUGGUCAACAGAGGAUUGAGCAUCA
# B13: chr22:32413844:32414425:-|three_prime_utr|ENSG00000184459|control|control|control (ssRNA)
# RNA: GGGAGUUCUACAGUCCGACGAUCUGUAAACCCAGAAGGGAAAGACAGUACACACUGGAAUUGUAAAGCCCUUGUGAAUUGCUUAGGCAGAAAGUUUUCUUUCUUAAGCCUUCAGGAACCCAGAAUAAGGCAGACUCUGUUAAACAACAGAGGAUUGAGCAUCA
# B14: chr7:83961326:83961382:-|CDS_3pUTR|ENSG00000075213|msi1_unk|FALSE|overlapping (ssRNA)
# RNA: GGGAGUUCUACAGUCCGACGAUCAAACAGGAGGACCCACGAAUUUGAGAGGGCACCCAGGAGUGUCUGAGCUGCAUUACCUCUAGAAACCUCAAACAAGUAGAAACUUGCCUAGACAAUAACUGGAAAAACAAAUGCAAUAUACAACAGAGGAUUGAGCAUCA
# B15: chr4:83462471:83462902:-|CDS|ENSG00000163322|control|control|control (ssRNA)
# RNA: GGGAGUUCUACAGUCCGACGAUCUUCAAGAGAUCUCGGUUGUUAGAUACACAAGACAAACGAUCUAAAGCAGAUACUGGUAGUAGUAACCAAGAUAAAGCAUCCAAAAUGAGCAGCCCAGAAACAGAUGAAGAAAUUGAAAAGCAACAGAGGAUUGAGCAUCA
# B16: chr12:56204332:56204433:-|3pUTR|ENSG00000181852|unk|total|mutant (ssRNA)
# RNA: GGGAGUUCUACAGUCCGACGAUCUUUUGCCUUUCUCUCACCUUAAUUCCCUUUCUUCCUUACUUUGUUACCUACCCUUAUCUCCGUGCUAACUUCUCUUUCAGGAGGAUGUCUGGGAGCCGUGUGCACUUCACAGCUGCUUUCCAACAGAGGAUUGAGCAUCA
# B17: chrX:119243474:119243703:+|3pUTR|ENSG00000101856|msi1|FALSE|unique (ssRNA)
# RNA: GGGAGUUCUACAGUCCGACGAUCGGUAUUUCCCAAAACAGGUAAAAAUCUUAAAUGUGCACCAAGAGCAAAGGAUCAACUUUUAGUCAUGAUGUUCUGUAAAGACAACAAAUCCCUUUUUUUUUCUCAAUUGACUUAACUGCACAACAGAGGAUUGAGCAUCA
# B18: ENSG00000103257:stop:overlap|stop_codon|ENSG00000103257|stop_codon|NA|stop_codon (ssRNA)
# RNA: GGGAGUUCUACAGUCCGACGAUCGCAUCUUCUCCACGACCGUCCUGUGUCAGAAGCUCAUGCAGGUGGUCCCCCAGGAGACAUAGCCAGGAGGCCGAGUGGCUGCCGGAGGAGCAUGCGCAGAGGCCAGUUAAAGUAGAUCACCAACAGAGGAUUGAGCAUCA
# B19: ENSG00000198589:be:win_5101|CDS|ENSG00000198589|bound_else_gene|NA|bound_elsewhere_windowed (ssRNA)
# RNA: GGGAGUUCUACAGUCCGACGAUCCCACCAGCCUGCCUUGGAGCCCUUGGUGAUCUAUCUGUGGAACAACCCGUGCAGUUCAGAUCUUUUGACAGAAGUGUCAUUGUUGCAGCAAAAAAGUCAGCAGUCUCACCUUCCACCUUUCAACAGAGGAUUGAGCAUCA
# B20: chr4:17843545:17843646:+|3pUTR|ENSG00000109805|msi1|FALSE|unique (ssRNA)
# RNA: GGGAGUUCUACAGUCCGACGAUCCUGUGCGCUUCCACGUUACUUUGGCCUGUAUUAAAGCAGUAGAGCAGCAUCAGUUAUUAUAGUCCAGAAAAAGUGUGCAUCAGUCAGUCACACAGAUUUAUCACAAUCUGAGGUGGGCCUCAACAGAGGAUUGAGCAUCA
# B21: chr2:200823707:200823808:+|3pUTR|ENSG00000082153|msi1|FALSE|bound_elsewhere (ssRNA)
# RNA: GGGAGUUCUACAGUCCGACGAUCUGAGUAACUUUGAUAAAGUUUUUCAUGCACAGGCAAAAUGUAUUCACUAGAUUUCUACGUAGUGAUCUGCUUUUACUUUGUAAUUUGUAGUUCUCAAAAGACUUUUUUUUAAAAAAAUAACAACAGAGGAUUGAGCAUCA
# B22: chr20:25297698:25297799:+|3pUTR|ENSG00000100994|msi1|total|mutant (ssRNA)
# RNA: GGGAGUUCUACAGUCCGACGAUCCCCAAGAGAGAGGGCAGGGAACAGGCUACUGUCCUUCCCUGUGGAAUUGCCGAGAAAUCCCGCACCUUGCAUGCUGGAUCUGGGCUGCGGGGAGGCUCUUUUUCUCCCUGGCCUCCAGUGCAACAGAGGAUUGAGCAUCA
# Target: T1, UNK ZnF1-6 (called full-length) (human, UniProt Q9C0B0 30-357)
# T1 sequence: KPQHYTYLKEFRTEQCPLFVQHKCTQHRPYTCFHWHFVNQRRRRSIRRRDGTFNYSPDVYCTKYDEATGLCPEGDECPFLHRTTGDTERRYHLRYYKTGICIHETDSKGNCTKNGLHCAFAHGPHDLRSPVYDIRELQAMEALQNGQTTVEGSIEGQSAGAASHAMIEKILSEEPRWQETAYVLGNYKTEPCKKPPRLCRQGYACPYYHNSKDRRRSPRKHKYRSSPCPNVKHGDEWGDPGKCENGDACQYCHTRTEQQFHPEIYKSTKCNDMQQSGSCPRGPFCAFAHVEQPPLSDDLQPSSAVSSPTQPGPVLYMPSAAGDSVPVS
# Assay: nsRBNS (natural sequence RNA bind-n-seq); RBNS binding buffer (assumed for nsRBNS): 25 mM Tris pH 7.5, 150 mM KCl, 3 mM MgCl2, 0.01% Triton X-100, 500 ug/ml BSA, 20 U/ml SUPERase-In, 4 C; UNK is unkempt and MSI1 is Musashi-1; names of the RNAs are library labels; protein concentration not given here; high values mean tight binding
row,Binder,binding signal [enrichment R]
1,B1,0.519
2,B2,0.276
3,B3,0.393
4,B4,0.691
5,B5,1.66
6,B6,0.469
7,B7,0.573
8,B8,0.493
9,B9,0.639
10,B10,0.834
11,B11,0.374
12,B12,0.818
13,B13,0.429
14,B14,0.962
15,B15,0.544
16,B16,0.75
17,B17,0.727
18,B18,0.571
19,B19,0.855
20,B20,1
21,B21,0.774
22,B22,0.743
